The text below walks through data of PubChem BioAssay (NCI).

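Tested at 5 concentrations; 48 h exposure; 96-well plates; endpoints linearly interpolated, else capped at highest concentration. GI50 is the concentration that inhibits growth by half.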 Certain results were filed several times, with different values. The other results are left out here. The source may hold further records. For some assays here: Records of one sample usually come from different ranges of test concentrations, not given here; some values may only mark the edge of a range. For some assays here: Values that stand side by side are repeated measurements in other runs, samples, wells, individuals or studies. Records carry a tag for their origin. A, B and so on number the origins entry by entry.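 TGI denotes the concentration required for complete inhibition of growth.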

Some test systems named below: MDA-MB-435; MDA-N; IGROV1 ovarian; NCI-H23 lung; HL-60(TB) leukemia; MCF7 breast; NCI-H522 lung; TK-10 renal; SNB-75 CNS; COLO 205 colon; HT29 colon; HS 578T breast; SR leukemia; SF-539 CNS; RPMI-8226 leukemia; K-562 leukemia; MALME-3M melanoma; UO-31 renal; EKVX NSCLC; NCI/ADR-RES ovarian; HCT-15 colon; SK-OV-3 ovarian; SW-620 colon; CCRF-CEM leukemia; SK-MEL-5 melanoma.

Common to all, as to assay: NCI anticancer screen, dose series, 48 h

In the case of `CNC(=O)CC1NC(=O)c2csc(n2)-c2ccc(-c3nc(C4=NC(C(=O)N5CCCC5C(N)=O)CO4)cs3)nc2-c2csc(n2)-c2csc(n2)C(C(C)C)NC(=O)CNC(=O)c2csc(n2)C(C(C)C)NC(=O)c2nc1sc2C` (centres undefined), the TGI in the assay on MDA-MB-435 was 2.54 nM and > 25 µM; in the assay with MDA-N it was 1.26 nM and > 25 µM; with IGROV1 ovarian it was 683 nM and > 25 µM; with NCI-H23 lung, 615 nM and > 25 µM; in the assay with HL-60(TB) leukemia, 7.2 nM and > 25 µM; in the assay with MCF7 breast, 2.48 µM and > 25 µM. In addition, the TGI with NCI-H522 lung was 33.4 nM and > 25 µM; in the assay with TK-10 renal, 882 nM and > 25 µM; in the assay on SNB-75 CNS, 167 nM and > 25 µM; in the assay on COLO 205 colon it was 795 nM and > 25 µM; with HT29 colon, 29 nM and > 25 µM; in the assay on HS 578T breast, 7.42 nM and > 25 µM. The TGI in the assay on SR leukemia is 175 nM and > 25 µM; in the assay on SF-539 CNS it was 14.5 nM and > 25 µM; with RPMI-8226 leukemia it was 498 nM and > 25 µM. Further, in the assay on NCI-H522 lung, the GI50 was 1.77 nM and > 25 µM.
As to `CC1(O)CC(c2nc(-c3ccc4ccc(-c5ccccc5)nc4c3)c3c(N)nccn23)C1` (centres undefined), the GI50 with K-562 leukemia is 13 µM [sample A, mean of 2 tests] and 41.4 nM [sample B, 1 test].
With `COc1cccc(OCCCN)c1-c1cc(Nc2cnc(C#N)cn2)n[nH]1`, the GI50 is 6.89 nM [1 test] and 102 nM [mean of 2 tests] with IGROV1 ovarian; 47.3 nM [1 test] and 944 nM [mean of 2 tests] with MALME-3M melanoma; 17 nM [1 test] and 249 nM [mean of 2 tests] with EKVX NSCLC. Besides, in the assay with UO-31 renal, the TGI was 104 nM [1 test] and 2.43 µM [mean of 2 tests].
Turning to `Oc1[nH]c2c(Br)cccc2c1C1=Nc2ccccc2/C1=N/OCCN1CCCC1`, the TGI in the assay on NCI/ADR-RES ovarian was 7.73 µM and > 100 µM; with HL-60(TB) leukemia, 3.52 µM and > 100 µM; in the assay on HCT-15 colon, 4.24 µM and > 100 µM; in the assay on SK-OV-3 ovarian it was 4.3 µM and > 100 µM; in the assay with SW-620 colon, 3.27 µM and > 100 µM; in the assay on CCRF-CEM leukemia it was 5.88 µM and > 100 µM. In addition, the TGI in the assay with SK-MEL-5 melanoma is 2.38 µM and > 100 µM; in the assay on RPMI-8226 leukemia, 4.85 µM and > 100 µM.
